# Measured values from PubChem BioAssay AID662 (National Center for Advancing Translational Sciences (NCATS), 2007).
# Several values for one entry are separate records, joined by “and”; a condition that tells them apart may be missing. Identical values can stand only once. The campaign covered roughly 71,000 compounds. About 1,800 (2.5%) were called active. Inconclusive means that the source gave no clear call. Such entries were picked first, then a sample of the others. Calls follow the shape of the dose curve; as a rule, active = well fitted activation curve with a large enough effect in the signal ratio, with a control signal flat (not every such curve was filed as active); inconclusive = small, poorly fitted or top-dose-only effect, or effect the other way, or a change in a side signal; inactive = flat fitted curve, though single readings scatter; the % refers to the signal ratio. Potencies beside an inconclusive call are fits to weak or partial responses and may not hold up.
# Experiment: Cell signaling CRE-BLA (Fsk stim); as to activity change, negative = inhibition: % of control where 0% means no effect
# Details: CHO CRE-bla reporter (cAMP response element driving beta-lactamase), forskolin EC10, beta-lactamase ratio; activity change, negative = inhibition: at 38.2 µM (top of the series) unless noted
# How it was run: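 Modulation of forskolin signalling: compounds in titration series added with EC10 NKH 477 to CHO cells carrying a CRE-driven beta-lactamase reporter, 3 h, 37C. CCF4 FRET ratio (460/530 nm, ex 405 nm) gives %activity and AC50.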
# Potency is read from the fitted curve at half-maximal effect; tags tell the direction and shape of the fitted curve.
Structure (SMILES),Potency,"activity change, negative = inhibition"
Cc1ccc2[nH]c3c(c2c1)CN(C(=O)CN1CCN(c2ccccc2)CC1)CC3,"inconclusive: 12.6 µM [falling, single point]",
CCc1c(C#N)c(SCc2c(C)noc2C)nc2c1C(=O)CC(C)(C)C2,,inconclusive: 16.3%
O=C(Cn1nc(C(F)(F)F)c2c1CCCC2)Nc1ccc2c(c1)OCO2,,inconclusive: -21.2%
COc1ccc2nc(SCC(=O)N3CCNC3=O)[nH]c2c1,,inactive
O=C(CCn1c(=O)sc2ccccc21)Nc1nccs1,"inconclusive: 12.6 µM [falling, partial curve]",
COc1ccc(-n2c(C)c(C(C)=O)c(C(C)=O)c2C)cc1OC,"inconclusive: 10 µM [rising, single point]",
CC(=O)Nc1nc(N2C(=O)c3ccccc3C2=O)n(-c2ccccc2)n1,,inconclusive: 21.1%
CC(C)CC(=O)N1CCN(S(C)(=O)=O)CC1,,inactive
Cc1cc(N2C(=O)C3C4C=CC(C4)C3C2=O)ccc1Br (centres undefined),,inactive
C=CCSC1=C(C#N)C(c2ccccc2OCC)CC(=O)N1 (centres undefined),"inconclusive: 5.01 µM [falling, single point]",
COc1ccccc1-n1c(CNC(=O)c2ccccc2)nnc1SCC(=O)Nc1nnc(C)s1,,inactive
Nc1nnc(C2CCCC2)s1,,inactive
COCCNC(=O)[C@@]1(Cc2ccccc2)C=C[C@@H](C)N1C(=O)OC,,inactive
O=C(CC1CCCC1)OCn1nnc2ccccc2c1=O,"inconclusive: 3.98 µM [falling, single point]",
COc1ccc(NC(=O)CCN2CCCCC2)cc1,,inconclusive: -24%
CCc1c(C)nc(SCCOc2ccc(OC)cc2)[nH]c1=O,"inconclusive: 10 µM [rising, single point]",
CCCC(c1nnnn1Cc1cccs1)N1CCN(c2ccc(OC)cc2)CC1 (centres undefined),,inactive
COC(=O)C1=CN(C2CC2)C=C(C(=O)OC)C1c1ccccc1OC,"inconclusive: 10 µM [rising, partial curve]",
O=C(CSc1ncnc2ccccc12)Nc1ccc(N2CCOCC2)cc1,,inactive
COc1ccccc1-c1nccc(-n2ccnc2)n1,,inconclusive: 12.3%
CNC(=O)CCn1nc(-c2ccc(Cl)cc2)c2ccccc2c1=O,"inconclusive: 10 µM [rising, single point]",

Structure (SMILES),Potency,"activity change, negative = inhibition"
COC(=O)C1=CN(C)C=C(C(=O)OC)C1c1ccc(O)c(OC)c1,,inactive
COc1cccc(NC(=O)CN(c2cccc(C(F)(F)F)c2)S(C)(=O)=O)c1,,inconclusive: 11.9% [at 7.6 µM]
CN(C)c1ccc(-c2nn3c(-c4cccnc4)nnc3s2)cc1,"inconclusive: 0.02 µM [rising, full curve]",
O=C(O)c1ccc(CNc2ccccc2C(=O)O)cc1,,inactive
COc1cc(-c2noc(-c3cccc(Cl)c3)n2)cc(OC)c1OC,,inconclusive: 9.83%
O=C1CCCc2c1cc(C(=O)Nc1ccc(Cl)cn1)c(=O)n2-c1ccccc1,"inconclusive: 10 µM [rising, single point]",
Cc1ccc(CN2C(=O)CCC2C(=O)NCc2ccc(F)cc2)cc1 (centres undefined),,inconclusive: -1.86%
CCOCCOC(=O)COc1ccc(N2C(=O)c3ccccc3C2=O)cc1,,inconclusive: 6.77% [at 7.6 µM]
Cc1cc(-c2nnc3n2N=C(c2ccc(-c4ccccc4)cc2)CS3)n[nH]1,,inconclusive: -19.2%
O=C(c1nn2c(C(F)(F)F)cc(-c3ccc(F)cc3)nc2c1Cl)N1CCOCC1,,inconclusive: -4.65% [fluorescent] [at 7.6 µM]
CS(=O)(=O)N1CCN(C(=O)c2csc3ccccc23)CC1,active: 10 µM,
COc1ccc(OC)c(NC(=O)c2cc3ccccc3o2)c1,"inconclusive: 1.26 µM [rising, single point]",
O=C(CN1CCOc2ccccc21)N1CCC(Cc2ccccc2)CC1,,inconclusive: -20%
O=C(CSc1ncnc2c1oc1ccccc12)Nc1cccc(Cl)c1,"inconclusive: 25.1 µM [rising, single point]",
COc1ccc(Nc2nc(N)nc(C(F)(F)F)n2)c(OC)c1,active: 12.6 µM,
COC(=O)c1cc(NCc2ccccc2F)ccc1N1CCOCC1,,inconclusive: 24.5%
N#CC(C(=O)NC1CCCCC1)c1nc2ccccc2nc1N1CCN(c2ccc(F)cc2)CC1 (centres undefined),"inconclusive: 7.94 µM [falling, partial curve]",
O=C(OCCOc1ccccc1Cl)c1ccc(-n2cnnn2)cc1,"inconclusive: 12.6 µM [rising, single point]",
CCOC(=O)c1cc2ccccc2nc1C,,inactive
CCCn1c(O)c(CN2CCCCC2)c(C)c(C#N)c1=O,,inactive
COc1ccc(CNC(=O)CN(CC2CCCO2)C(=O)CNS(=O)(=O)c2ccc(C)cc2)cc1 (centres undefined),,inactive

Structure (SMILES),Potency,"activity change, negative = inhibition"
CCCOc1ccc2oc(=O)c3c(c2c1)CCCN3C(=O)CN1CCCC(C(=O)OCC)C1 (centres undefined),,inconclusive: 9.19%
Cc1ncc(CO)c2cc(C(N)=O)c(=Nc3ccccc3)oc12,"inconclusive: 7.94 µM [rising, partial curve, poor fit]",
CCN1C(=O)c2cccc3c(N)ccc1c23,active: 10 µM,
Cc1ccc2cc(C(c3nnnn3CC3CCCO3)N3CCc4ccccc4C3)c(=O)[nH]c2c1 (centres undefined),,inactive
CC(=O)NCCn1c(SCC(=O)c2ccccc2)nc2ccccc2c1=O,,inconclusive: 9.87%
CCC(C)OC(=O)c1[nH]c2c(c1C)C(=O)CC(c1ccc(N(C)C)cc1)C2 (centres undefined),"inconclusive: 3.98 µM [rising, partial curve]",
CC(C(=O)O)n1nc2ccccc2n1 (centres undefined),"inconclusive: 3.98 µM [falling, single point]",
CCOC(=O)c1cnc2ccc(C(=O)OC)cc2c1NCc1ccco1,,inactive
C[C@H](Cc1ccc(O)c(O)c1)[C@@H](C)Cc1ccc(O)c(O)c1,,inconclusive: -13.5% and inconclusive: 27.1%
O=C(O)CC1Sc2ccccc2NC1=O (centres undefined),,inactive
Cc1ccc(NS(=O)(=O)c2ccc(NC(=O)c3ccc(Br)o3)cc2)c(C)c1,,inconclusive: 39.3%
CCN1CC=C2C(C#N)=C(N)C(C#N)(C#N)C(c3cc(Cl)ccc3Cl)C2C1 (centres undefined),,inconclusive: 6.67%
C=CCn1c(SCC(=O)Nc2sccc2C(N)=O)nc2sc(C)c(C)c2c1=O,active: 2 µM,
Cc1nc(NC2CCCCC2)c2nc(-c3ccccc3)n(CCN3CCCCC3)c2n1,,inconclusive: 22.9%
COc1ccc2c(=O)cc(-c3ccc(O)cc3)oc2c1,"inconclusive: 25.1 µM [rising, partial curve]",
N#Cc1nc(-c2ccco2)oc1N1CCN(c2ccccc2)CC1,"inconclusive: 15.8 µM [rising, partial curve]",
O=C(O)c1cccc(CN2CCCCC2)c1,,inactive: -1.51% [at 7.6 µM]
CCCOc1nc2c(c(=O)n(C)c(=O)n2C)n1Cc1cccc2ccccc12,,inconclusive: 18.7%
COc1ccccc1-c1nc(N2CCOCC2)c2ccccc2n1,,inactive
CCCC(C)C(=O)Nc1ccc(C(N)=O)cc1 (centres undefined),,inconclusive: 38.2% [at 7.6 µM]
CCc1ccc(CNc2ccc(N3CCN(C(C)=O)CC3)cc2)cc1,,inactive

Structure (SMILES),Potency,"activity change, negative = inhibition"
CCC(=O)Oc1ccc(C/C(=N\O)c2ccc(O)cc2O)o1,,inconclusive: -1.84%
Cn1c(SCC(=O)c2ccccc2)nnc1C1CC1,,inconclusive: -20.1%
COCCn1c(COc2ccc(OC)cc2)nc2ccccc21,,inactive
COCCCNC(=O)CCc1nc(-c2ccccc2)no1,,inconclusive: 2.41%
COc1ccccc1N(CCC#N)C(=O)CSc1ccc2c(c1)OCCO2,,inactive
COC(=O)[C@@]1(Cc2ccc(OC)cc2)[C@H]2c3cc(C(=O)N4CCCC4)n(CCc4ccccn4)c3C[C@H]2CN1C(=O)c1ccccc1,,inconclusive: -2.7%
COc1ccccc1N1CCN(C(=O)c2cc3c(-c4ccc(Cl)cc4)nn(C)c3s2)CC1,,inconclusive: 26.9% [cytotoxic]
CCCCn1c(CN2CCN(c3ccccc3)CC2)nc2c1c(=O)n(C)c(=O)n2C,,inactive
CC(=O)NCCNc1ncnc2ccc(-c3c(C)noc3C)cc12,,inconclusive: 28%
CN1CCN(/C(=N\O)c2nonc2N)CC1,,inactive
CCc1nnc(SCC(=O)N2CCCc3ccccc32)nc1CC,,inconclusive: 40.6%
CCn1c(SCC(=O)N(Cc2ccccc2)C2CCS(=O)(=O)C2)nc2ccccc2c1=O (centres undefined),"inconclusive: 10 µM [rising, single point]",
COCCNC(=O)CN1CCN(Cc2cccc(Cl)c2)C1=O,,inactive
Cc1csc(N(C)C(=O)CSc2nnc(COc3ccccc3C)o2)n1,,inconclusive: -1.81%
Cc1ccc2c(c1)[nH]c1c(=O)n(Cc3ccccn3)cnc12,"inconclusive: 12.6 µM [rising, single point]",
CCN(CC)CCOc1nc(C)nc2c1oc1ccccc12,"inconclusive: 15.8 µM [rising, partial curve]",
COC(=O)C(C)Oc1ccc(=O)[nH]n1 (centres undefined),,inactive
COc1ccc(-c2nnc3sc(CN4C(=O)c5ccccc5C4=O)nn23)cc1,,inconclusive: 14.4%
COc1cc(C(=O)Nc2ccc(S(=O)(=O)N3CCCCC3C)cc2)cc(OC)c1OC (centres undefined),"inconclusive: 10 µM [rising, single point]",
COc1cccc(-c2nnc(SCC(=O)Nc3ccc4c(c3)OCCO4)n2Cc2ccco2)c1,,inconclusive: 0.0783%
COc1cc(C2C3C(=O)N(Cc4ccccc4)C(=O)C3ON2c2ccccc2)cc(OC)c1OC (centres undefined),"inconclusive: 12.6 µM [rising, single point]",
